Assay results taken from ChEMBL document CHEMBL4888484, “Replenishing the malaria drug discovery pipeline: Screening and hit evaluation of the MMV Hit Generation Library 1 (HGL1) against asexual blood stage Plasmodium falciparum ,using a nano luciferase reporter read-out” (2022).
About 540 (0.36%) of roughly 150,000 compounds showed an effect of 50% or more. The list shows a part of the results.

system: Plasmodium falciparum; test: Primary screen in NF54 nanoGlo assay, in single point, at 2uM, 72h; a lower Z score goes with more inhibition; format: functional, Erythrocyte; conditions: timepoint 72 hour

| SMILES | % Inhibition [%] | Z score |
| --- | --- | --- |
| CCCCN1C(=O)[C@](NS(=O)(=O)c2ccc(NC(C)=O)cc2)(C(F)(F)F)C(C(C)=O)=C1C | -7 | 0.92 |
| O=C1C[C@@H]2CCN(Cc3ccccn3)C[C@@H]2CCOc2ccc(F)cc2N1 | -7 | 1.07 |
| O=C(NCC1CCCN(c2ncccc2Br)C1)C1CCCN1 (configuration not stated) | -6 | 1.05 |
| Nc1nonc1C(=O)N1CCN(C(=O)Nc2ccc3c(c2)OCCO3)CC1 | 30 | -3.98 |
| CC(=O)N[C@@H](C)CC(=O)N(CCO)Cc1cccs1 | -5 | 0.74 |
| COc1cc(-c2ncc(C(F)(F)F)cc2Cl)cc2c1OCCNC2 | 20 | -2.49 |
| Brc1ccc(CNc2nc(-c3ccco3)n[nH]2)cc1 | -8 | 1.45 |
| CC1(c2nc(-c3ccnc(O)c3)no2)CCCCC1 | -5 | 0.57 |
| O=C(Nc1nc(NC(=O)c2ccccc2)nc(NC(=O)c2ccccc2)n1)c1ccccc1 | -6 | 1.23 |
| CN1CCN(C[C@H]2CCC3(CCN(S(=O)(=O)c4cc(F)cc(F)c4)CC3)O2)CC1 | -7 | 0.95 |
| COc1cccn(CC(=O)N2C[C@@H]3[C@H](C2)[C@H]2CC[C@@H]3O2)c1=O | -8 | 1.37 |
| C[C@@H]1CC[C@H](CO)N1CC1CC2(CCC2)CO1 (some centres not stated) | -12 | 1.25 |
| Cc1ccccc1CC1(NC(=O)c2ccn(C)c2C)CC1 | -4 | 0.52 |
| Cc1cccc2[nH]c([C@@H]3CCCN3C(=O)c3cc(C4CC4)n[nH]3)nc12 | -7 | 0.87 |
| CO[C@H]1COC[C@@H]1NC(=O)c1c(F)cccc1Cl | -26 | 2.58 |
| O=S(=O)(Nc1ccc(Cl)cn1)c1ccc2ccccc2c1 | 1 | -0.15 |
| CCc1nnc([C@@H]2Cc3ccccc3CN2)o1 | -5 | 0.71 |
| CC(=O)Nc1cccc(Cn2ccnn2)c1 | -15 | 1.58 |
| COc1ccc(Cl)cc1C(=O)N1CC(n2ccnn2)C1 | 3 | -0.55 |
| Cc1noc(COC2CN(C(=O)N[C@H]3CCN(c4ncccc4Cl)C3)C2)n1 | -7 | 1.19 |
| Cc1nc(C)c(F)c(N2CC[C@H](Oc3cccnc3N(C)C)C2)n1 | -14 | 1.81 |

| SMILES | % Inhibition [%] | Z score |
| --- | --- | --- |
| CCCS(=O)(=O)NC(=O)C1CC1c1cccc(F)c1F (configuration not stated) | -7 | 0.55 |
| O=c1cc2c(nn1CC1CN(c3cc(=O)n4ccccc4n3)C1)CCC2 | -25 | 3.58 |
| Cn1ncn(CC(=O)NCC2(N3CCOCC3)CCCCC2)c1=O | -12 | 1.71 |
| CC(C)(O)c1cc(CC2(NCc3cccc4c3OCO4)COC2)no1 | 1 | -0.12 |
| CC(C)C1CCC(C(=O)NC(Cc2ccccc2)C(=O)NC2CCS(=O)(=O)C2)CC1 (configuration not stated) | 4 | -0.57 |
| O=C(Nc1cccnc1)N1CCC(CN2C(=O)c3ccccc3C2=O)CC1 | -11 | 0.96 |
| CC(C)C[C@H](CCO)CNC(=O)NCC1CC1 | -6 | 1.07 |
| Cc1nnc([C@H](C)N2CCCN(Cc3ccccc3C)CC2)o1 | 0 | 0.03 |
| Cc1cc(C)nc(CN(C)C(=O)NCCCN2CCCC2=O)c1 | -7 | 0.93 |
| COCc1noc(-c2n[nH]c(=O)c3ccccc23)n1 | -9 | 1.32 |
| c1cc2cc(Cn3cnc4c3CCCC4)ccc2cn1 | -6 | 0.71 |
| c1ccc(C2=NN(c3ccc(-c4cc(-c5ccccc5)[n+](-c5ccccc5)c(-c5ccccc5)c4)cc3)[C@H](c3ccccc3)C2)cc1 | 91 | -14.02 |
| CC(C)CC[C@H]1CCCCN1CCCC(=O)O | -12 | 1.51 |
| COc1ccccc1C/N=C1\C(c2ccc(C(C)C)cc2)=Nc2ncnn21 | -4 | 0.52 |
| Cc1n[nH]c(C)c1CCC(=O)N1CCC(n2c(=O)[nH]c3ccsc3c2=O)CC1 | -11 | 2.16 |
| CC(=O)NC(C)(C)C(=O)Nc1cc(-c2ccccc2C)nn1C | 2 | -0.24 |
| CC(C)CN(C)[C@H]1CN(C(=O)c2[nH]cnc2-c2ccccc2)C[C@@H]1O | 0 | -0.06 |
| Cc1noc(C)c1CCC(=O)N1CCC(c2nnc(C(C)C)o2)CC1 | 9 | -1.13 |
| Cc1cccc2[nH]c([C@H]3CCCN(C(=O)c4ccc5cc[nH]c5c4)C3)nc12 | -9 | 1.82 |
| CC(C)O[C@@H]1CCN(C[C@H](O)c2ccc(C(F)(F)F)cc2)C1 | 45 | -3.9 |
